Some of the results follow. The full chains were built here from the parent and the listed change. Values near 0.05 are background.
B1: TEV protease; numbered along this chain (parent)
chain: MGESLFKGPRDYNPISSSICHLTNESDGHTTSLYGIGFGPFIITNKHLFRRNNGTLVVQSLHGVFKVKDTTTLQQHLVDGRDMIIIRMPKDFPPFPQKLKFREPQREERICLVTTNFQTKSMSSMVSDTSCTFPSGDGIFWKHWIQTKDGQCGSPLVSTRDGFIVGIHSASNFTNTNNYFTSVPKNFMELLTNQEAQQWVSGWRLNADSVLWGGHKVFMVKPEEPFQPVKEATQL

Variants of: B1
Assay: raw area under fraction-flipped curve 0-4 h after induction (AUC4h, not background-subtracted), DNA-recorder readout of cleavage of the substrate (dimensionless); higher = more cleavage of the substrate by the protease variant
Details: temperature: 34 °C; time window: 0-4 h after rhamnose induction
Procedure: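 In vivo DNA recorder in E. coli TOP10(DE3) ΔrhaA at 34 °C. Each TEVp single-site mutant (parent TEVp 0) is paired with a single-site variant of the 7-mer TEVs (canonical ENLYFQ|S). The substrate sits between flexible linkers in a Bxb1-sfGFP-TEVs-SsrA fusion, so cleavage stabilises Bxb1 and speeds flipping of a recombination array, read by NGS. The value is the raw area under the fraction-flipped curve over 0-4 h after rhamnose induction (AUC4h), with ≥20 reads per time point. It is not background-subtracted; inactive controls average about 0.047.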
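Further: Bxb1 expression induced with 0.2% (w/v) L-rhamnose at OD600 near 0.5, cultures sampled hourly, flipped fraction per protease–substrate barcode pair counted by paired-end Illumina sequencing.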

Variant	area with substrate ENLYFCS	area with substrate ENLYFES	area with substrate ENLYFIS	area with substrate ENLYFKS	area with substrate ENLYFLS	area with substrate ENLYFMS	area with substrate ENLYFNS	area with substrate ENLYFPS	area with substrate ENLYFTS	area with substrate ENLYFDS
T233W	0.0674	0.0653	0.065	0.0549	0.0554	0.0567	0.0597	0.0649	0.0626	
S182V	0.0375			0.0551	0.055				0.0403	0.0559
N178S	0.0562	0.0686	0.0466	0.067	0.0645		0.0522		0.0553	
P228S	0.0481		0.0418			0.0786	0.065	0.0417	0.0685	0.0599
K66E	0.0744		0.0374	0.0533	0.0645	0.0532	0.086		0.0354	0.042
K66W	0.0615	0.0726	0.0543	0.0598		0.0613	0.0565	0.0548	0.0508	
K66Y		0.0669	0.0587			0.0751	0.0536	0.0374	0.0787	0.0618
S4A	0.0684		0.0556	0.0707		0.0622			0.0547	0.0613
K7S	0.0511	0.0656								
F218V			0.0755	0.0895	0.0645	0.0402	0.0594	0.0622		0.0622
F95N	0.0504				0.0502	0.0499		0.051		0.0476
K98R	0.0652	0.0734	0.0477	0.0622		0.0626	0.0684		0.0534	
D91M	0.0642		0.0612	0.0572						
S124Y	0.0227		0.0531							0.0602
L205S			0.0309		0.0622					
Q97G	0.0683						0.0689			
G37C	0.067		0.0376					0.0548		
G153I	0.0657		0.0453	0.0364		0.0537	0.0626	0.0625	0.0428	
N193Q	0.0526	0.0605						0.053		

Variant	area with substrate ENLYFCS	area with substrate ENLYFES	area with substrate ENLYFIS	area with substrate ENLYFKS	area with substrate ENLYFLS	area with substrate ENLYFMS	area with substrate ENLYFNS	area with substrate ENLYFPS	area with substrate ENLYFTS	area with substrate ENLYFDS
V58L	0.0605	0.0707	0.0443	0.0558	0.0616	0.0608		0.0671	0.0629	
N175Q	0.0584	0.0855	0.0508			0.0637		0.0657	0.0768	0.0649
K185N	0.0614	0.0442	0.0531			0.0662	0.0677	0.0599		0.1
A196V	0.0616	0.06				0.0536				
N177G	0.0499		0.0491			0.0767		0.0495		
R87Q	0.0664				0.0494	0.0849			0.0408	0.0462
L211T	0.051									
S201H	0.0619		0.0552	0.0617	0.0655	0.0599	0.0845			
H76F	0.0566	0.0664	0.0594	0.0632		0.0758	0.0967	0.0541	0.0595	
L190P	0.0723		0.0483	0.0471		0.0321	0.0471	0.0578		
N172V	0.0553						0.0629	0.0567		
N172P	0.0618					0.0504	0.0789	0.055		
S154A	0.063	0.06	0.0616	0.0691		0.0625		0.0619	0.0575	0.0578
P9N	0.0363		0.0554			0.0529				
Q197I	0.0593		0.0521			0.0673	0.0619			0.0665
Y12R	0.0607	0.0463	0.0382	0.0545	0.0669	0.0681			0.0522	0.0621
R109Y	0.0634	0.0568	0.0501			0.0986	0.0612			
H215F	0.0577		0.0826	0.0592		0.0608				
F187A	0.0511	0.0628	0.056	0.0818	0.0557	0.0638	0.0587	0.0543		0.0512

Same assay, conditions: temperature: 34 °C; time window: 0-4 h after rhamnose induction

Variant	area with substrate ENLYFGS	area with substrate ENLYFHS	area with substrate ENLYFWS	area with substrate ENLYFFS	area with substrate ENLYFRS	area with substrate ENLYFSS	area with substrate ENLYFVS	area with substrate ENLYFYS	area with substrate ENLYFAS
S182V	0.0563	0.0556	0.0609						
N178S		0.0572	0.0513	0.0456	0.0787	0.0689			
P228S			0.0582			0.0561			
K66E	0.0576	0.0488		0.0731	0.0376		0.0653	0.079	
K66W	0.0687	0.067	0.0574	0.0764					
K66Y	0.065	0.0682	0.0727	0.0637	0.0644	0.0475	0.0672	0.0568	0.0508
S4A	0.0632	0.067	0.0684	0.066	0.0474		0.0575	0.0578	
K7S							0.0467		
F218V		0.0452			0.0653			0.0517	0.0599
F95N				0.0593	0.0462		0.0473		
K98R	0.0529		0.0414	0.0511	0.0648		0.0658		
D91M			0.056		0.0559				
S124Y				0.0416	0.0394	0.0614		0.0729	0.0615
L205S								0.0078	0.054
Q97G			0.0423						
G37C				0.0402					
G153I		0.0813		0.0739	0.044				
N193Q	0.0717				0.0551				

Variant	area with substrate ENLYFGS	area with substrate ENLYFHS	area with substrate ENLYFWS	area with substrate ENLYFFS	area with substrate ENLYFRS	area with substrate ENLYFSS	area with substrate ENLYFVS	area with substrate ENLYFYS	area with substrate ENLYFAS
V58L	0.0732		0.0303	0.072	0.0417				
N175Q	0.0713	0.035		0.0891		0.0602			
K185N			0.0565		0.0519		0.0524	0.0419	
A196V		0.0619			0.0721		0.0613	0.0503	
N177G						0.0767	0.045	0.0457	
R87Q			0.0548		0.0451				
S201H			0.055		0.0518		0.0497		
H76F		0.0701	0.0708	0.0791			0.0584		0.0468
L190P		0.0479	0.0571	0.0699	0.0561			0.0499	
N172V						0.043		0.0596	
N172P				0.0642					
S154A	0.062	0.0606		0.0663	0.0592	0.0757			
P9N	0.0629	0.0517	0.0544						
Y12R	0.067		0.0528	0.0718	0.0534		0.0056	0.067	
R109Y		0.0567		0.0575			0.0559		
H215F			0.0518						
F187A		0.0722	0.055	0.0668	0.0556		0.0398		
